The record followed here is patent US20250243260A1.

Numbering of substitutions follows the chain as printed.

For the assay, the target named is human PD-L1 (human) (UniProt Q9NZQ7). Nature of the assay: flow cytometry, SCC152/PD-L1 cells. A general note: In flow cytometry, cells or beads pass a laser one at a time.
UniProt Q9NZQ7, sequence (Q9NZQ7 19-290): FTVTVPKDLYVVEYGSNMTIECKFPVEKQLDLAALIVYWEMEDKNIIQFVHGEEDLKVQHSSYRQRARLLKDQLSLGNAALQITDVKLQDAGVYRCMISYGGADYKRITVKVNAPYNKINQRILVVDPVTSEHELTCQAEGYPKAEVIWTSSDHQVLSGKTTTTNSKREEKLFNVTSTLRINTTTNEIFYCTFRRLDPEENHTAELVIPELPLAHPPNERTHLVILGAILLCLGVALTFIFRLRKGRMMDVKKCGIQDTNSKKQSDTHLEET

B1: CD80_186-Fc (Fc fusion)
chain: VIHVTKKVKEWATLSCGHNVSVEELAQTRIYWQKEKKMVLTMMSGDMNIWPEYKNRTIFDITHNLSIVILGLRPSDEGTYECVVLKKEKDAFKREHLAEVTLSVKADGSGGGGS[omitted - human IgG4 Fc with S228P (EU numbers)]
As to B1, the Anti-Human Fc (MFI) at 0.8 nM turned out to be 762 MFI, the Anti-Human Fc (MFI) at 4 nM was found to be 766 MFI, the Anti-Human Fc (MFI) at 20 nM turned out to be 900 MFI and the Anti-Human Fc (MFI) at 100 nM amounted to 1180 MFI.

B2: CD80_227-Fc (Fc fusion)
chain: B1 chain with K7E, T28H, D46Q, H63N, V68L, G71A, L85E, K87Y
B2: the Anti-Human Fc (MFI) at 0.8 nM came out at 720 MFI, the Anti-Human Fc (MFI) at 4 nM was 756 MFI and the Anti-Human Fc (MFI) at 20 nM came to 943 MFI.

B3: CD80_192-Fc (Fc fusion)
chain: B1 chain with K7N, W11V, E35D, H63N, G71A, K87Y, T101R
For B3, the Anti-Human Fc (MFI) at 0.8 nM was found to be 607 MFI, the Anti-Human Fc (MFI) at 4 nM was 661 MFI, the Anti-Human Fc (MFI) at 20 nM is 818 MFI and the Anti-Human Fc (MFI) at 100 nM was 1120 MFI. Also, the fold change vs WT CD80 @20 nM was 1.2 fold.

B4: CD80_167-Fc (Fc fusion)
chain: B1 chain with K7E, W11Y, M42I, M47V, H63N, K87Y
For B4, the Anti-Human Fc (MFI) at 0.8 nM amounted to 643 MFI, the Anti-Human Fc (MFI) at 4 nM amounted to 665 MFI, the Anti-Human Fc (MFI) at 20 nM worked out at 736 MFI and the Anti-Human Fc (MFI) at 100 nM worked out at 1140 MFI.

B5: CD80_226-Fc (Fc fusion)
chain: B1 chain with K7E, K9R, W11V, A26T, T28Y, E35A, M47L, H63N, K87Y
Consider B5, for which the Anti-Human Fc (MFI) at 0.8 nM is 949 MFI, the Anti-Human Fc (MFI) at 4 nM turned out to be 1130 MFI, the Anti-Human Fc (MFI) at 20 nM is 1180 MFI and the Anti-Human Fc (MFI) at 100 nM was determined as 1370 MFI.

B6: CD80_213-Fc (Fc fusion)
chain: B1 chain with K7E, W11Y, H63N, V68T, G71A, K87Y
For B6, the Anti-Human Fc (MFI) at 0.8 nM was 792 MFI, the Anti-Human Fc (MFI) at 4 nM came out at 839 MFI, the Anti-Human Fc (MFI) at 20 nM came to 1024 MFI and the Anti-Human Fc (MFI) at 100 nM came out at 1180 MFI.

B7: CD80_202-Fc (Fc fusion)
chain: B1 chain with K7H, W11V, H18L, V20I, T28Y, D46S, H63N, K87Y
B7: the Anti-Human Fc (MFI) at 0.8 nM was determined as 700 MFI, the Anti-Human Fc (MFI) at 4 nM was determined as 789 MFI, the Anti-Human Fc (MFI) at 20 nM worked out at 951 MFI and the Anti-Human Fc (MFI) at 100 nM stood at 1140 MFI.

B8: CD80_204-Fc (Fc fusion)
chain: VIHVTKEVKEVATLSCGVNISVEELAQYRIYWQKGKKMVLTMMSGDVNIWPEYKNRTIFDITNNLSIVILALEPSDEGTYECVVLKYEKDAFKREHLAEVTLSVKADGSGGGGS[omitted - human IgG4 Fc with S228P (EU numbers)]
As to B8, the Anti-Human Fc (MFI) at 0.8 nM was 662 MFI, the Anti-Human Fc (MFI) at 4 nM turned out to be 665 MFI, the Anti-Human Fc (MFI) at 20 nM amounted to 831 MFI and the Anti-Human Fc (MFI) at 100 nM is 1300 MFI. Besides, the fold change vs WT CD80 @20 nM is 1.2 fold.

B9: CD80_170-Fc (Fc fusion)
chain: B8 chain with K9N, E10G, V18H, I20V, Y28T, D46E, V68M, E73R
Consider B9, for which the Anti-Human Fc (MFI) at 0.8 nM turned out to be 843 MFI, the Anti-Human Fc (MFI) at 4 nM was determined as 976 MFI, the Anti-Human Fc (MFI) at 20 nM came to 1070 MFI and the Anti-Human Fc (MFI) at 100 nM was 1220 MFI.
